Assay results reported in PubChem BioAssay AID1508623 (National Center for Advancing Translational Sciences (NCATS), 2021).
Among all 48,000 compounds or so, about 450 (0.94%) were called active. The inconclusive results got no clear call from the source; some entries with a clear call stand among them for comparison. The call rests on the fitted dose curve; in most records, active means well fitted inhibition curve with a large enough effect; inconclusive means small, poorly fitted or top-dose-only effect; inactive means no such curve, though single readings can be large or run the other way. Potencies beside an inconclusive call are fits to weak or partial responses and may not hold up.

Assay: Primary qHTS for Identification of Small Molecule Inhibitors of Huntingtin Promoter Activity; further: nearly all actives have a fitted effect of over 50% in size
Details: HEK293 HTT promoter firefly luciferase reporter (activity 0% = vehicle and -100% = no light), 24 h; series mostly up to 57.5 µM; activity change, negative = inhibition: at the top concentration
Procedure, shortened: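 Firefly luciferase signal from promoter-reporter HEK293 cells was scaled between vehicle (0%) and zero RLU (-100%). Compounds were tested at final concentrations of up to 57.5 uM over 24 h at 37 degrees C. PTC124 at 50 uM final served as control inhibitor.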
Potency means the concentration at half of the fitted maximal effect; tags describe the fitted curve by direction and shape.

| Compound | Potency | activity change, negative = inhibition |
| --- | --- | --- |
| COc1ccc(Br)cc1C1SCC(=O)Nc2c1c(C)nn2-c1ccccc1C (stereo not given) | inconclusive: 17.8 µM [inhibitor, partial curve, poor fit] | – |
| CCC(C)(C)c1ccc(O)cc1 | – | inactive: 9.35% |
| C[C@@H]1O[C@@H](O[C@H]2C[C@@H](O)[C@]3(CO)[C@H]4[C@H](O)C[C@]5(C)[C@@H](C6=CC(=O)OC6)CC[C@]5(O)[C@@H]4CC[C@]3(O)C2)[C@H](O)[C@H](O)[C@H]1O | inconclusive: 0.0611 µM [inhibitor, full curve] | – |
| C[C@@H]1CC[C@H]2[C@@H](C)C(=O)O[C@@H]3O[C@@]4(C)CC[C@H]1[C@]32OO4 | – | inactive: -16.3% |
| Cc1ccccc1CN1C(=O)C(C)N=C(c2ccccc2)c2ccccc21 (stereo not given) | inconclusive: 22.4 µM [inhibitor, single point] | – |
| O=C(CCCCl)c1ccc(F)cc1 | – | inactive: 10.7% |
| CCc1cc(OC)c(C[C@H](C)N)cc1OC | – | inactive: -10.4% [at 116 µM] |
| COc1ccc(OCC(=O)N2CCN(Cc3ccc(SC)cc3)CC2)cc1 | inconclusive: 17.8 µM [inhibitor, partial curve, poor fit] | – |
| COc1ccc2c(c[n+](C)c3c4cc5c(cc4ccc23)OCO5)c1OC | inconclusive: 9.68 µM [inhibitor, partial curve, poor fit] | – |
| O=c1[nH]c2ccccc2n1C1CCN(Cc2ccc(-c3[nH]c4cc5ncnc5cc4nc3-c3ccccc3)cc2)CC1 | inconclusive: 43.2 µM [inhibitor, partial curve, poor fit] | – |
| CC[C@@H]1[C@@H](C)O[C@@](O)([C@@H](C)[C@H](O)[C@H](C)[C@H]2OC(=O)C=CC=C[C@@H](C)[C@@H]([C@@H](C)[C@@H](O)[C@H](C)[C@@]3(O)C[C@H](O[C@H]4C[C@H](O)[C@H](O)[C@H](C)O4)[C@H](CC)[C@@H](C)O3)OC(=O)C=CC=C[C@@H]2C)C[C@H]1O[C@H]1C[C@H](O)[C@H](O)[C@H](C)O1 | inconclusive: 10.9 µM [inhibitor, full curve] | – |
| O=S(=O)(F)Cc1ccccc1 | – | inactive: -4.88% |
| N#Cc1cc2c(nc1SCC(=O)Nc1cccc(C(F)(F)F)c1)C1CCN2CC1 | inconclusive: 31.6 µM [inhibitor, partial curve, poor fit] | – |
| Clc1ccc(CCC(Cn2ccnc2)Sc2c(Cl)cccc2Cl)cc1 (stereo not given) | inconclusive: 31.6 µM [inhibitor, single point] | – |
| Cc1ccc(NC(=O)CN2C(=O)CN=C(c3ccccc3)c3ccccc32)cc1Cl | inconclusive: 39.8 µM [inhibitor, single point] | – |
| COc1ccc(C(=O)c2c(C)n(CCN3CCOCC3)c3cc(I)ccc23)cc1 | inconclusive: 24.3 µM [inhibitor, partial curve, poor fit] | – |
| CCc1ccc(-n2nc(C)c3c2NC(=O)CSC3c2ccccc2C)cc1 (stereo not given) | inconclusive: 10 µM [inhibitor, partial curve, poor fit] | – |
| Nc1ccc(N)cc1 | – | inactive: -2.24% |
| O=C(Nc1ccc(F)c(Cl)c1)N(Cc1ccc2c(c1)OCO2)C1CCN(Cc2ccccc2)CC1 | inconclusive: 39.8 µM [inhibitor, partial curve, poor fit] | – |
| Nc1c(C(=O)Nc2ccc(F)c(Cl)c2)sc2nc3c(cc12)N1CCC3CC1 | inconclusive: 39.8 µM [inhibitor, single point] | – |

| Compound | Potency | activity change, negative = inhibition |
| --- | --- | --- |
| COC(=O)c1ccccc1NC(=O)c1cccn(Cc2cccc(Cl)c2)c1=O | inconclusive: 35.5 µM [inhibitor, partial curve, poor fit] | – |
| CCN(CC)C(=O)c1ccc(NC(=O)COc2ccc(-c3nn(C)c(=O)c4ccccc34)cc2)cc1 | inconclusive: 28.2 µM [inhibitor, partial curve, poor fit] | – |
| Cc1ccccc1-c1nc(CN2C(=O)CN=C(c3ccccc3)c3ccccc32)c(C)o1 | – | inactive: -26.4% |
| CCc1ccc(-n2nc(C)c3c2NC(=O)CSC3c2ccc(C(=O)OC)cc2)cc1 (stereo not given) | inconclusive: 14.1 µM [inhibitor, partial curve, poor fit] | – |
| C1=C2CCCN[C@H]2[C@@H]2C[C@H]1[C@@H]1CCCCN1C2 | – | inactive: 3.05% |
| CC(CC(C(N)=O)(c1ccccc1)c1ccccc1)N(C)C (stereo not given) | – | inactive: 8.02% |
| Cc1ccccc1-c1nn2c(=O)cc(CN3CCN(C(=O)COc4ccccc4Cl)CC3)nc2s1 | inconclusive: 12.6 µM [inhibitor, partial curve] | – |
| CCOP(=O)(OCC)C(C)NC(=O)N(CCCl)N=O (stereo not given) | – | inactive: 7.37% |
| CC(C)[C@H]1C(=O)N[C@H](CO)Cc2c[nH]c3cccc(c23)N1C | – | inactive: 1.27% |
| CC=C(C)C(=O)O[C@H]1C(C)=C2[C@@H]3OC(=O)[C@@](C)(O)[C@@]3(O)[C@@H](OC(=O)CCC)C[C@](C)(OC(C)=O)[C@@H]2[C@@H]1OC(=O)CCCCCCC | inconclusive: 0.544 µM [inhibitor, full curve] | – |
| COc1cccc(/C=C/c2nc3ccccc3c(=O)n2-c2ccc(Cl)cc2)c1OC | inconclusive: 39.8 µM [inhibitor, single point] | – |
| COc1ccc(-c2nc(CN3C(=O)CN=C(c4ccccc4)c4cc(Cl)ccc43)c(C)o2)cc1 | inconclusive: 39.8 µM [inhibitor, single point] | – |
| O=C(Nc1ccncc1)C(=O)c1cn(Cc2ccc(Cl)cc2)c2ccccc12 | – | inactive: -9.65% |
| O=C(Nc1ccc2c(c1)OCCO2)c1cccn(Cc2cccc(F)c2)c1=O | – | inactive: 0% |
| Nc1ccccc1C(=O)O | – | inactive: 0.582% |
| CSc1ccc(CN2CCN(C(=O)COc3ccc(C)cc3)CC2)cc1 | inconclusive: 31.6 µM [inhibitor, single point] | – |
| COc1ccc(OC)c(NC(=O)Cn2cc(C(=O)c3ccccc3)c3ccccc32)c1 | inconclusive: 31.6 µM [inhibitor, single point] | – |
| Nc1ccc(N=Nc2ccccc2)cc1 | inconclusive: 89.1 µM [inhibitor, single point] | – |
| Nc1c(C(=O)Nc2ccc(Cl)cc2)sc2nc3c(cc12)N1CCC3CC1 | inconclusive: 20 µM [inhibitor, single point] | – |
| CN1CCc2cc(Cl)c(O)cc2[C@H]2c3ccccc3CC[C@@H]21 | – | inactive: -4.89% |
